Test results from PMC4336329 (PLoS ONE, 2015).
Screen size: about 310,000 compounds; about 14,000 (4.5%) showed an effect of 50% or more. Effects have a minus sign here. Some of the results follow.

Molecular target: human ether-à-go-go-related gene (hERG) potassium channel (human, UniProt Q12809)
Experiment: primary screen, population patch clamp on CHO cells stably expressing hERG
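Note: peak tail current of the secondary pulse compared with the same well before compound.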

human ether-à-go-go-related gene (hERG) potassium channel, sequence (Q12809 whole entry, looked up): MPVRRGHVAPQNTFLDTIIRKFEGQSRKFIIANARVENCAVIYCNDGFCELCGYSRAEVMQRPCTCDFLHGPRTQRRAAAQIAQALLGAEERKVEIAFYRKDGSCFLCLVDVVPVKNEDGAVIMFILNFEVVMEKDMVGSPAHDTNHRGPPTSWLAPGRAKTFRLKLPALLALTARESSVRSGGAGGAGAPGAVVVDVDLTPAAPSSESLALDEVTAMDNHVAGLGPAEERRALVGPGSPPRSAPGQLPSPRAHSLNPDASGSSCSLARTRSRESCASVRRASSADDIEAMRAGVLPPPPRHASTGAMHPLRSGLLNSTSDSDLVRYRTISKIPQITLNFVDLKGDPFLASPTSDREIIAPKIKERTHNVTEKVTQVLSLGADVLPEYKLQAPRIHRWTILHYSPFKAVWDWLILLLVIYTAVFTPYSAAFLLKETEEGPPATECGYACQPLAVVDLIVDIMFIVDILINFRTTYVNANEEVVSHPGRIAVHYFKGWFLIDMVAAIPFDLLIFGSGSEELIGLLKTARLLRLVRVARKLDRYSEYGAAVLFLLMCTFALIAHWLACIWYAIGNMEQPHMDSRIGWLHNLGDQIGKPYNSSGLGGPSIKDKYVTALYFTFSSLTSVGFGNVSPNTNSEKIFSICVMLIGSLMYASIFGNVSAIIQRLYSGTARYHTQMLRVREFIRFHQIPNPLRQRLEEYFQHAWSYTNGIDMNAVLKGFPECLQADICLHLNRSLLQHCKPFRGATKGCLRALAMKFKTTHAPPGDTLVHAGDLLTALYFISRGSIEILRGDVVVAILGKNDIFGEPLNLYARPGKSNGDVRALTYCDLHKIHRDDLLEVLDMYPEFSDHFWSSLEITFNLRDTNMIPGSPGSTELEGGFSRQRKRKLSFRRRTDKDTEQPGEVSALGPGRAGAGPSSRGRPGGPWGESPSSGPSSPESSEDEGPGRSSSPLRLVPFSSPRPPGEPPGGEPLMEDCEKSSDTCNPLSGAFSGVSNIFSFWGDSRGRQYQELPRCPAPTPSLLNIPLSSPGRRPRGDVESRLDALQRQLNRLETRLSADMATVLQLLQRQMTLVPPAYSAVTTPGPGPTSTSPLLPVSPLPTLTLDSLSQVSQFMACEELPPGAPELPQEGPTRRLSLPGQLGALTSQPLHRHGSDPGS

SMILES | hERG current change (%, negative = inhibition) at 10uM [%]
O=C(CCCCCN1C(=O)c2cccc([N+](=O)[O-])c2C1=O)Nc1ccccc1F | 12.5
O=C(O)CCN1CCc2ccccc2C1c1ccncc1 (stereo not shown) | 13.2
O=C(NCc1ccccn1)c1cc(-c2ccc(Cl)cc2)oc1C(F)(F)F | 3.34
Cc1ccc(C(=O)NCCC(=O)N2CCOCC2)cc1 | 15.3
CC(OC(=O)CCN=C1NS(=O)(=O)c2ccccc21)C(=O)Nc1ccc(F)c(F)c1F (stereo not shown) | -8.42
CC(=O)Nc1cccc(NC(=O)C(=O)c2cn(CC(=O)N3CCCCC3)c3ccccc23)c1 | -4.02
O=C1Nc2ccccc2C(=O)N2C[C@@H](O)C[C@H]12 | 26.3
O=C(C1CC(c2ccc(F)cc2)=NO1)N1CCN(c2ccccc2)CC1 (stereo not shown) | 5.22
CN1N=C(C(=O)N2CCCC(C(=O)c3cccc(C(F)(F)F)c3)C2)CCC1=O (stereo not shown) | -2.17
CCOc1ccccc1NC(=O)C(OC(=O)c1ccc(NC(=O)CC#N)cc1)c1ccccc1 (stereo not shown) | 12.6
Br.CC(C)O.Cc1ccc(-c2csc(Nc3ccccc3)[n+]2CCc2ccccc2)cc1 | 20.5
COc1ccc(NC(=O)CSc2nnc(CNC(=O)c3ccco3)o2)c(OC)c1 | 6.03
COc1ccc2[nH]cc(CCNCc3cccnc3)c2c1.Cl | 4.89
CC(=O)NC1(C(F)(F)F)NC(=O)N(C2CCCCC2)C1=O (stereo not shown) | -15
CNC(=O)CSc1nnnn1-c1cc(C)ccc1C | 5.31
CCN1CCN(c2cc(C)c3cc(NC(=O)c4cccnc4Cl)ccc3n2)CC1 | -6.83
O=C1CC(N2CCN(c3ccccc3)CC2)C(=O)N1CCc1ccccc1 (stereo not shown) | -17.8
COC(=O)c1ccc(CSc2nncn2C)cc1 | -4.19
Nc1cc(N)cc(-c2nc3ccccc3[nH]2)c1 | -1.71
CCCn1c(N)c(C(=O)COC(=O)c2c(C)noc2C)c(=O)n(C)c1=O | -21
CCCCOC(=O)CCc1c(C)[nH]c(=O)c(C#N)c1C | -32.8
Cc1cc(C)n2ncc(-c3cccc(Br)c3)c2n1 | 5.79

SMILES | hERG current change (%, negative = inhibition) at 10uM [%]
O=C(CN1CCCc2ccccc21)NCc1ccc2c(c1)OCO2 | -0.305
COCCNCc1ccccc1 | 0.571
CCOC(=O)c1sc(NC(=O)CC)nc1C | -2.64
O=c1cnc2ccccc2n1Cc1ccc(Br)cc1 | 0.175
CC(C)CCN1CCN(Cc2cccc(-n3cccn3)c2)CC1CCO (stereo not shown) | -57.6
COC(=O)Cc1ccc(NC(=S)NCc2ccc(S(N)(=O)=O)cc2)cc1 | 15.8
CCOc1ccc2[nH]c(=O)c(CN(CCO)C(=O)c3ccc(OC)c(OC)c3)cc2c1 | -0.583
O=C(NCc1cccc(Cl)c1)c1ccc(-c2csnn2)cc1 | 6.03
CCCc1nnc(NC(=O)C2CC(=O)N(CCc3ccc(F)cc3)C2)s1 (stereo not shown) | -32.6
CCn1c(SCC(=O)c2ccc3c(c2)OCCO3)nnc1C(C)C | 4.98
O=C(CCc1nc(-c2ccc(Cl)cc2)no1)OCc1ccc(Br)cc1 | 7.97
CC(=O)N1CCN(c2ccccc2NC(=O)c2cc3ccccc3o2)CC1 | -49.8
Cc1ccc(O)c(CNc2cnc3ccccc3c2)c1 | 2.28
Fc1ccc(NC(=S)NCCc2ccc(Cl)cc2)cc1 | 1.47
CCn1cc(C(=O)N2CCN(c3ccc(OC)cc3)CC2)c(=O)c2cc(S(=O)(=O)N3CCCCC3)ccc21 | 26.4
COc1ccc(OCCOc2ccc(N(C)S(=O)(=O)c3ccccc3)cc2)cc1 | -3.07
CCCCNS(=O)(=O)c1ccc(NC(=O)C(Sc2ccccc2)c2ccccc2)cc1 (stereo not shown) | 15.9
CC(NC(=O)c1ccccc1N)c1ccccc1 (stereo not shown) | 8.41
O=C(CNc1cccc(C(F)(F)F)c1)N/N=C/c1ccccc1C(=O)O | 8.38
O=C(NC1CCCC1)C(c1ccc(F)cc1)N(C(=O)c1csnn1)c1ccccc1 (stereo not shown) | 15
Cc1nc(N)sc1-c1csc(Nc2ccccc2)n1 | -6.34
COc1ccc(NC(=O)C2CCN(S(=O)(=O)c3ccc(Br)s3)CC2)cc1OC | -23.1

SMILES | hERG current change (%, negative = inhibition) at 10uM [%]
CCN(CC)CCCNC(=O)CSc1c2c(nc3cc(Cl)ccc13)CCCC2 | -48.4
O=C(NCc1ccccn1)c1ccc(CNS(=O)(=O)c2cccc(C(F)(F)F)c2)cc1 | -10.5
Cc1ccc([N+](=O)[O-])cc1NC(=O)CCSc1ccc(Cl)cc1 | 5.48
CCCCCn1c(N2CCOCC2)nc2c1c(=O)n(CC(N)=O)c(=O)n2C | -6.44
Cc1cc(C)cc(NS(=O)(=O)c2cnc(Cl)c(Cl)c2)c1 | 7.75
O=S(=O)(Nc1ncccn1)c1ccc(NC(=S)N2CCN(Cc3ccc(F)cc3Cl)CC2)cc1 | 22
O=Cc1c(C(=O)O)n(Cc2ccccc2F)c2ccccc12 | 14.3
COc1ccc(C2Nc3ccccc3C(=O)N2Cc2ccco2)cc1COc1ccccc1F (stereo not shown) | 10.5
O=C(NC(=S)Nc1cccc2cc(O)ccc12)c1ccco1 | 21.5
CCC(=O)c1ccc(OC(=O)Cc2ccc(OC)cc2)cc1 | 10.1
CCOC(=O)C1(Cc2ccccc2)CCN(Cc2cccn2-c2cccnc2)CC1 | -39
Cc1ccc(NC(=O)c2ccc([N+](=O)[O-])o2)cc1S(=O)(=O)N1CCOCC1 | -37.4
COc1ccc(NC(=O)COC(=O)CO/N=C(\C)c2ccc3c(c2)OCO3)cc1S(N)(=O)=O | -0.902
c1ccc(CCCc2nc(-c3ccccn3)no2)cc1 | -7.53
COc1cc(/C=N/NC(=O)CCC(=O)Nc2ccc(Br)cc2)ccc1O | 22
O=C1CNC(=O)N1CC(O)Cn1c2ccccc2c2ccccc21 (stereo not shown) | 9.97
COc1cc(CNc2ccc(O)cc2)cc(Br)c1OCc1ccccc1F | 8.69
O=C(Nc1ccccc1Cl)NC1(C(=O)N2CCCCC2)CCCCC1 | 14.9
Cc1ccccc1Nc1c([N+](=O)[O-])ccc2c1=NC1(CCCCC1)N=2 | -16.6
Cc1c(CC(=O)NCCCO)c(=O)oc2cc3c(cc12)CCC(C)(C)O3 | 17.6
CCN(c1ccccc1)S(=O)(=O)c1ccc(OC)c(NC(=O)C2CC(=O)N(Cc3ccccc3)C2)c1 (stereo not shown) | -24
C=CCNC(=O)C(=O)NCCCN1CCOCC1 | 23.7

SMILES | hERG current change (%, negative = inhibition) at 10uM [%]
Cc1ccccc1N(Cc1nnc2n1CCCCC2)C(=O)Nc1ccccc1 | 16
COCCNC(=O)c1cc(-c2ccc(-c3ccccc3)cc2)nc2ccccc12 | 1.12
Cc1ccc(NC(=O)C2CC(=O)NC(Nc3cccc(C)c3)=N2)cc1 (stereo not shown) | 6.66
COCCOC1CCN(C(=O)C2CCC(=O)N(CCc3ccccc3)C2)CC1 (stereo not shown) | 17.2
CC(C)(C)c1ccc(NC(=O)CSc2n[nH]c(=O)n2-c2cccnc2)cc1 | 23.3
COC(=O)c1ccccc1NC(=S)NC(=O)c1ccccc1C | -18.2
O=[N+]([O-])c1ccc(-c2csc(NN=C3CCCC3)n2)cc1 | 15.5
CCC(C)Oc1ccc(/C=C/c2[nH]c(=O)[nH]c(=O)c2[N+](=O)[O-])cc1OC (stereo not shown) | 0.289
CCOC(=O)c1sc2nc3c(SCC(=O)O)cc(C(=O)c4ccccc4O)cn3c(=O)c2c1C | -17.8
Cc1nc(SCc2ccc(OCCC(C)C)cc2)n[nH]1 | -3
Cc1ccc(-n2c(C)cc(/C=C(\C#N)C(=O)NCC3CCCO3)c2C)cc1 (stereo not shown) | -21.3
N=C1C(c2nc3ccccc3s2)=C(O)CN1C1CCCCC1 | -6.76
O=C(CNC1CCCCC1)N1CCC2(CC1)OCCO2.O=C(O)C(=O)O | 21.4
O=C(COc1ccc(F)cc1)Nc1ccc(S(=O)(=O)Nc2ncccn2)cc1 | -5.32
COc1cc(/C=N/Nc2ccc(Cl)c(C(=O)O)c2)ccc1OC(=O)c1ccccc1F | 6.42
COCCCn1c(=O)c2sccc2n2c(CCCC(=O)NCc3ccccc3)nnc12 | -10.7
Cn1c(C(=O)N2CCCC(C(=O)NCCCSC3CCCCC3)C2)cc2sccc21 (stereo not shown) | -38.4
NC(N)=N/N=C/c1ccc(Cl)c(Cl)c1 | -30
CCCCNc1cc(Cl)nc(N)n1 | 0.797
Cc1ccc2c(c1)[nH]c1c(=O)n(Cc3ccccn3)cnc12 | 1.9
C=CCn1c(SCc2csc(C)n2)nc2sc3c(c2c1=O)CCCCC3 | -8.41
CCOc1ccc(CN2C(=O)c3ccccc3C2=O)cc1C(=O)Nc1nnc(SCC)s1 | 4.47
